Test results taken from the RNAGym collection of RNA variant scans (doi:10.1073/pnas.2313332121).
Variants at the background level are over-represented here.

B1: TPR 5TU (parent)
chain: GGAUCUUCUCGAUCUAACAAAAAAGACAAAUCUGCCACAAAGCUUGAGAGCAUCUUCGGAUGCAGAGGCGGCAGCCUUCGGUGGCGCGAUAGCGCCAACGUUCUCAACUAUGACACGCAAAACGCGUGCUCCGUUGAAUGGAGUUUAUCAUG

Variants of: B1
Assay: polymerase ribozyme fitness, log enrichment relative to wild type (log ratio); higher = more active; in vitro selection for triplet polymerase activity
Outline: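 To select mutant libraries of each subunit of a heterodimeric triplet polymerase ribozyme, built by PCR and transcribed, each was annealed with a biotinylated primer, partner subunit and triplets, then incubated frozen at −7 °C. Extended constructs were gel-excised, captured on streptavidin beads and amplified by RT-PCR, in one round carried out in triplicate. Illumina sequencing of input and output libraries kept genotypes with ≥10 input reads and ≥1 read per output. Fitness is the base-2 logarithm of genotype enrichment relative to wild-type enrichment, from inverse-variance-weighted replicate averages.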

GGAUCUUCUCGAUCUAACAAAAAAGACAAAUCUGCCACAAAGCUUGCGAGCAUCUUCGGAUGCAGAGGCGGCAGCCUUCGGUGGCGCGAUAGCGCCUACGUUCUCAACUAUGACACGCAAAACGCGUGCUCCGUUGAAUUGAGUUUAUCAUG and GGAUCUUCUCGAUCUAACAAAAAAGACAAAUCUGCCACAAAGCUUGCGAGCAUCUUCGGAUGCAGAGGCGGCAGCCUUCGGUGGCGCGAUAGCGCCAACGUUCUCAUAUAUGACACGCAAAACGCGUGCUCCGUUGAAUGGAGUUUAUCAUG cannot be ordered by “polymerase ribozyme fitness (log ratio)” value: ≤ -4.2 for the first, ≤ -4.2 for the second.

GGAUCUUCUCGAUCUAACAAAAAAGACAAAUCUGCCACAAAGCUUGCGAGCAUCUUCGGAUGCAGAGGCGGCAGCCUUCGGUGGCGCGAUAGCGCCAACGUUCUCAACUAUGACCCGCAAAACGCGUGCUCCGUUGAGUGGAGUUUAUCAUG and GGAUCUUCUCGAUCUAACAAAAAAGACAAAUCUGCCACAAAGCUUGCGAGCAUCUUCGGAUGCAGAGGCGGCAGCCUUCGGUGGCGCGAUAGCGCCAACGUUCUCAACUAUGACACGCAGAACGCGUGCUCCGUUGAAUCGAGUUUAUCAUG cannot be ordered by “polymerase ribozyme fitness (log ratio)” value: ≤ -4.2 for the first, ≤ -4.2 for the second.

First: GGAUCUUCUCGAUCUAACAAAAAAGACAAAUCUGCCACAAAGCUUGCGAGCAUCUUCGGAUGCAGAGGCGGCAGCCUUCGGUGGCGCGAUAGCGCCAACGUUCUCAACUAUGACACGCAAAACGCGUGCUCCGUUGAAUGGAGUUUAUCUUG
Second: GGAUCUUCUCGAUCUAACAAAAAAGACAAAUCUGCCACAAAGCUUGCGAGAAUUUUCGGAAGCAGAGGCGGCAGCCUUAGGUGGCGCGAUAGGGACAACGUUCUCAACUAUGACACGCAAAACGCGUGCUCUGUUGAAUGGAGUUUAUUAUG
The “polymerase ribozyme fitness (log ratio)” value of the first is higher: -0.247 for the first, ≤ -4.2 for the second.

First: GGAUCUUCUCGAUCUAACAAAAAAGACAAAUCUGCCACAAAGCUUGCGAGGAUCUUCGGAUGCAGAGGCGGCAGCCUUCGGUGGCGUGUUAGCGCCAACGUUCUCAGCUAUGACACGCAAAACGCGUGCUCCGUUGAAUGGAGUUUAUCAUG
Second: GGAUCUUCUCGAUCUAACAAAAAAGACAAAUCUGCCACAAAGCUUGCGAGUAAAUUCGGAUGCAGAGGCGGCAGCCUUCGGUGGCGCGAUAGCGCCAACGUUCUCAACUAUGACACGCAAAACGCGUGCUCCGUUGAAUGUAGUUUAUCAUG
The “polymerase ribozyme fitness (log ratio)” value of the first is lower: ≤ -4.2 for the first, -4.13 for the second.

GGAUCUUCUCGAUCUAACAAAAAAGACAAAUCUGCCACAAAGCUUGCGAGCAUAUUCGGAUGCAGAGGCGGCAGCUUUCGGUGGGGCGAUAGCGCCAACGUUCUCUACUAUGACACGCAAAACGCGUGCUCCGUUGAAUGGACUUUAUCAUG and GGAUCUUCUCGAUCUAACAAAAAAGACAAAUCUGCCACAAAGCUUGCGAGCAUAUACGGAUGCAGAGGCGGCAGCCUUCGGUGGCGCGAUAGCGCGAACGUUCUCAACUAUGACUCGAAAAACGCGUGCUCCGUUGAGUGGAGUUUAUCAUG cannot be ordered by “polymerase ribozyme fitness (log ratio)” value: ≤ -4.2 for the first, ≤ -4.2 for the second.

GGAUCUUCUCGAUCUAACAAAAAAGACAAAUCUGCCACAAAGCUUGCGAGCAUGUUCGGAUGCAGAGGCGGCAGCCUUCGGUGGCGUGAUAGCGCCAACGUACUCAACUAUGACACGCAAAACGCGUGCUCGGUUGAAUGGAGUUUAUCAUG and GGAUCUUCUCGAUCUAACAAAAAAGACAAAUCUGCCACAAAGCUUGCGAGCAUUUUCGGAUGCAGAGGCGGCAGCCUUCGGUGGGGCGAUAGCUCCCACGUUCUCAACUAUGACACGCAAAACGCGUGCUCCGUUGAAUGGAUUUUAUCAUG cannot be ordered by “polymerase ribozyme fitness (log ratio)” value: ≤ -4.2 for the first, ≤ -4.2 for the second.

Compared with GGAUCUUCUCGAUCUAACAAAAAAGACAAAUCUGCCACAAAGCUUGCGAGCAUCUUAGGAUGCAGAGGCGGCAGCCUUCGGUGGCGCGAUAGCGCCAACGUUCUCAACUAUGACACGCAAAACGCGUGCUCCGUUGAAUGGAGUUUAUCAUG, GGAUCUUCUCGAUCUAACAAAAAAGACAAAUCUGCCACAAAGCUUGCGAGCAUCUUAGGAUGCAGAGGCGGCAGCCUUCGGUGGCGCGAUAGCGCCAACGUGCUCAACUAUGGCACGCAAAACGCGUGCUCCGUUGAAUGGAGUUUAUCAUG is lower in “polymerase ribozyme fitness (log ratio)” value: -0.176 for the first, ≤ -4.2 for the second.

Going from GGAUCUUCUCGAUCUAACAAAAAAGACAAAUCUGCCACAAAGCUUGCGAGCAUCUUGCGAUGCAGAGGCGGCAGCCUUCGGUGGCGCGAUAGCGCCAACGUUCUCAACUAUGACACGCAAAACGCGUGCUCCGUUGAAUGGAGUUUAUCAUG to GGAUCUUCUCGAUCUAACAAAAAAGACAAAUCUGCCACAAAGCUUGCGAGCAUCUUUGGAUGCAGAGGCGGCAGCCUUAGGUGGCGCGAUAGCACCAACGUUCUCAACUAUGACACGCAAAACGCGUGCUCCGUUGAAUGGAGUUUAUCAGG, the “polymerase ribozyme fitness (log ratio)” value falls from 0.275 to ≤ -4.2.

Compared with GGAUCUUCUCGAUCUAACAAAAAAGACAAAUCUGCCACAAAGCUUGCGAGCAUCUUCGGAUGAAGAGGCGGCAGCCUUCGGUAGCGCGAUAGCGCCAACGUUCUCAACUAUGACACGCAAAACGCGUGCUCCGUUGAAUGGAGUUUAUCAUG, GGAUCUUCUCGAUCUAACAAAAAAGACAAAUCUGCCACAAAGCUUGCGAGCAUCUUCGGAUGAAGAGGCGGCAGCCUUCGGUAGCGCGACAGCGCCAACGUUCUCAACUAUGACCCGCAAAACGCGUGCUCCGUUGAAUGGAGUCUAUCAUG is lower in “polymerase ribozyme fitness (log ratio)” value: -1.37 for the first, ≤ -4.2 for the second.

For GGAUCUUCUCGAUCUAACAAAAAAGACAAAUCUGCCACAAAGCUUGCGAGCAUCUUCGGAUGCAGAGGAGGCAGCCUUCGGUGGCGUGAUAGCGCCAACUUUCUCAACUAUGACACGCAAGACGCGUGCUCCGUUGAAUGGAUUUUAUCAUG, the “polymerase ribozyme fitness (log ratio)” value was ≤ -4.2.
